Experimental data published in article PMC6919601, “Identification of Plasmodium dipeptidyl aminopeptidase allosteric inhibitors by high throughput screening” (PLoS ONE, 2019).
Screen size: about 110,000 compounds; about 230 (0.21%) showed an effect of 50% or more. Some of the results follow.

Biological target: DPAP1 (Plasmodium falciparum, UniProt Q8IIJ9)
Test: primary screen, percent inhibition; read by cleavage of a fluorogenic dipeptide substrate; higher = more effect of the substance
Set-up: species or system P. falciparum D10 trophozoite lysates; single well
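Note: 30 min substrate incubation versus DMSO and 10 µM JCP410 controls.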

Chain of DPAP1 (Q8IIJ9 whole entry, looked up): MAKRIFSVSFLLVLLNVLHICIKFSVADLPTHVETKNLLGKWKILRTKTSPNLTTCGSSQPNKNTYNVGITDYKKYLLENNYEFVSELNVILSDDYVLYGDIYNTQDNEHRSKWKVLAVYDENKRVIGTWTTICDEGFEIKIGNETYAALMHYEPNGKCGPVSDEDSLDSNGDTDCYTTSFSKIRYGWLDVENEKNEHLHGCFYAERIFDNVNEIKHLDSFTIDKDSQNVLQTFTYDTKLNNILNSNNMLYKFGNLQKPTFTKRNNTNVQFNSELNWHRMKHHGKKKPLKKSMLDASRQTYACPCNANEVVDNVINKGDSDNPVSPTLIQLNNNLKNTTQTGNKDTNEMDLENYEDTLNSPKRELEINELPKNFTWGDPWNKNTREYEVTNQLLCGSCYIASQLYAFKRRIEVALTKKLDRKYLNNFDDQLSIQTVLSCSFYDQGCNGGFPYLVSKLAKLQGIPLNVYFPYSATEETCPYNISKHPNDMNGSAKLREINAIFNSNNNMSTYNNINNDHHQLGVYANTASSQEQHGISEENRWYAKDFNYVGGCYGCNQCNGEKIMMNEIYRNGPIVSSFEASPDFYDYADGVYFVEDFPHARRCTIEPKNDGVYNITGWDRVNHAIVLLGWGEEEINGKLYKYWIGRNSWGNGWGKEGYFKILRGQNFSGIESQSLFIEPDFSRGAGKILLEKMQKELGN

Row | SMILES | % Inhibition @ 10 uM [%]
1 | CC(NC(=O)Cn1c(=O)c2cccn2c2cccnc21)c1ccccc1 (stereo not shown) | -6.92
2 | CCc1cccc(C)c1NC(=O)c1ccc(OC)c(OC)c1 | -0.564
3 | Cc1c(C(=O)O)c2cc(O)c(Br)cc2n1C1CCCCCC1 | -4.04
4 | O=C(NC1CCN(Cc2ccccc2)CC1)C1CCN(S(=O)(=O)c2cccc3nonc23)CC1 | 1.76
5 | CC(NC(=O)c1cccnc1)C(c1cccs1)N1CCN(Cc2ccccc2)CC1 (stereo not shown) | 0.66
6 | COCC(C)NC(C)Cc1ccc(F)cc1 (stereo not shown) | -5.31
7 | CCOC(=O)C1CCCN(Cc2c(Cl)cccc2Cl)C1 (stereo not shown) | -2.34
8 | COc1ccc(C2C(C(C)=O)=C(O)C(=O)N2c2ccc(C)c(Br)c2)c(OC)c1 (stereo not shown) | -5.27
9 | CCOC(=O)C1CCCCN1Cc1c(F)cccc1Cl (stereo not shown) | -4.75
10 | N#CC1=C(N)OC2=C(C(=O)CC(c3ccccc3)C2)C1c1cccc(F)c1 (stereo not shown) | -4.02
11 | CCOc1ccc(CCNC(=O)CCc2nnc3n(CCC(C)C)c(=O)c4ccccc4n23)cc1 | 3.54
12 | O=C1c2ccc(Br)cc2C(=O)N1CCO | -5.65
13 | CCOC(=O)c1cnc(SCC(=O)Nc2nc3ccccc3s2)nc1N | -2.92
14 | NC(=O)COc1ccc(-c2noc(-c3cccs3)n2)cc1 | -7.38
15 | COc1ccc(CNC(=O)CN(Cc2ccccc2)S(=O)(=O)c2ccccc2)cc1 | 2.22
16 | Cc1cccc(NC2=NC(=O)/C(=C3/C(=O)Nc4ccccc43)S2)c1C | -0.0938
17 | Cc1ccc(-n2nc3c(=O)n(CC(=O)NCc4ccc(C)o4)nc(C)c3c2C)cc1 | -11.9
18 | COc1cccc(C2=NOC(C(=O)N3CCCC3)C2)c1 (stereo not shown) | -3.45
19 | COc1ccc(-n2nc3c(N4CCC(C(=O)NCCc5ccco5)CC4)nnc(C)c3c2C)cc1 | 12.1
20 | COc1ccc(N2C(N)=C(C#N)C(c3ccc(Br)cc3)C3=C2CCCC3=O)cc1 (stereo not shown) | 0.983
21 | CC(C)CC(C(=O)NCC#N)c1cccc(-c2ccc(S(=O)(=O)N3CCN(CCO)CC3)cc2)c1 (stereo not shown) | 1.7
22 | CCOC(=O)c1c(S(=O)(=O)Nc2cccnc2)c(C)n(C)c1C | -5.57

Row | SMILES | % Inhibition @ 10 uM [%]
23 | CSc1ccc(CN2CCC(O)CC2)cc1 | -3.82
24 | CCc1c(O)n(-c2ccccc2)c2ccc(Cl)n[n+]2c1=O | -4.31
25 | CSc1ccccc1NS(=O)(=O)c1cccc2cccnc12 | -3.19
26 | C=CCN1C(=O)NC(C(F)(F)F)(C(F)(F)F)N=C1c1ccccc1 | -1.11
27 | COCCCNC(=O)c1cc(-c2ccc(C)s2)nc2ccccc12 | -0.132
28 | CC1CCCN(c2nc3nonc3nc2Nc2ccc3c(c2)OCO3)C1 (stereo not shown) | -7.62
29 | c1ccc(COc2cccc(CNCc3cccnc3)c2)cc1 | 2.44
30 | COc1ccc(-c2csc(C(=O)N[C@@H](CC(C)C)C(=O)NCC#N)c2)cc1 | -0.207
31 | COc1cccc(NC2=C(Cl)C(=O)N(c3cccc(C)c3)C2=O)c1 | -1.84
32 | O=C(CN1C(=O)S/C(=C/c2ccncc2)C1=O)Nc1ccccc1 | 3.83
33 | CC(=O)Nc1ccc(NC(=O)COc2ccc(C)cc2)cc1C | -5.23
34 | O=C(O)CSc1cccc(C(=O)O)c1 | 3.25
35 | CCCC1CCc2c(sc(NC(=O)c3cccnc3Cl)c2C(N)=O)C1 (stereo not shown) | 7.02
36 | COc1ccc2cc(C(=O)Nc3cccc(C(F)(F)F)c3)sc(=O)c2c1OC | 2.76
37 | CC(C)C1(C)NCCN2C(=O)CSC21 (stereo not shown) | 3.76
38 | CN(CC(=O)Nc1cccc(Br)c1)S(=O)(=O)c1ccc(F)cc1 | -2.8
39 | Cc1ccc(S(=O)(=O)N2CCC(C(=O)O)CC2)cc1F | -4.91
40 | CCn1cc(/C=C(\NC(=O)c2ccccc2OC)C(=O)NCc2ccco2)c2ccccc21 | 1.64
41 | COc1ccccc1NC(=O)c1cc(Cl)cc(Cl)c1OC | -0.999
42 | Cc1cccc(CNC(=O)CSc2nnc(C)c3c(C)n(-c4ccccc4)nc23)c1 | 0.535
43 | Cc1nn(-c2ccccn2)c2c1C(=O)C(C#N)CC2 (stereo not shown) | 2.57
44 | O=C(Nc1nc2ccccc2s1)c1cc2cc(Cl)ccc2oc1=O | -1.12

Row | SMILES | % Inhibition @ 10 uM [%]
45 | CCCCN(C)CCCNC(=O)c1cc(O)nc2ccc(S(=O)(=O)N3CCCCC3C)cc12 (stereo not shown) | -1.34
46 | COc1ccc(C(=O)Nc2ccc(F)c(Cl)c2)cc1OC | -2.17
47 | Cc1c2cnn(CC(=O)NCCCN3CCN(C)CC3)c(=O)c2c(C)n1Cc1ccccc1F | -5.81
48 | CN(C1CCCCC1)S(=O)(=O)c1ccc2[nH]cc(C=O)c2c1 | -2.22
49 | CCC1=C(c2ccc(C)cc2)S(=O)(=O)N=C1N1CCC(C(=O)NCCC2=CCCCC2)CC1 | 0.762
50 | Cn1c(C(=O)O)c(CNC2CCCc3ccccc32)c2ccccc21 (stereo not shown) | 0.277
51 | CCNc1ncnc2c1cnn2C | -4.28
52 | Cc1ccc(CSCC(=O)NC2CCCC2)cc1 | 2.18
53 | CC(=O)N1N=C(c2ccncc2)OC12CCCCCC2 | -3.83
54 | Cc1n[nH]c(C)c1S(=O)(=O)N1CCC(C(=O)NCc2ccccc2Cl)CC1 | -5.67
55 | O=S(=O)(Nc1ccc(F)c(Cl)c1)c1ccccc1 | -1.56
56 | CCc1cccc2c(C#N)cn(CC(=O)NCCOC)c12 | -1.84
57 | Cc1ccc2c(c1)c1c3n2CCN(C2CCO2)C3CCC1 (stereo not shown) | 2.25
58 | CC1CCN(c2nc3nonc3nc2Nc2cccc(Cl)c2)CC1 | 4.88
59 | Cc1oc(-c2ccc(Cl)cc2)nc1CN1CCCC(C(=O)NC2CCC(C)CC2)C1 (stereo not shown) | -4.71
60 | COc1cc(-c2nc3nc4c(c(O)n3n2)CCC4)cc(OC)c1OC | 2.62
61 | CC(C)c1ccc(/C=C/C(=O)N2CCCCCC2)cc1 | -2
62 | COc1ccc(CNC(=O)CN2C(=O)CSc3nc(C)cc(C)c32)cc1 | -0.637
63 | Cc1nnc(NCc2ccccc2Cl)c2c1nnn2Cc1ccc(F)cc1 | 3.27
64 | O=C(NCc1ccc2c(c1)OCO2)C1CCCN(c2nc3ccsc3c(=O)s2)C1 (stereo not shown) | -2.74
